Laboratory results published in patent US5352804A, “Isolation and structure of Halistatin 2” (Arizona Board of Regents, a body corporate, acting on …, priority 1993, dated 1994).

Test system: human tumor cell lines
Test: cells
Excerpt: Only two hundred years ago, many diseases ravaged humankind. Many of these diseases now have been controlled or eradicated. In the development of the means to treat or control these diseases, work with the appropriate common experimental animals was of critical importance. With the various types of cancers, and with the HIV virus, such work is presently ongoing. The research for the treatment of various types of cancer is coordinated in the United States by the National Cancer Institute (NCI). NCI, as a government entity, has been charged with assisting anti-cancer research. To establish whether a substance has anti cancer activity, NCI has established a variety of protocols, one of which involves testing the candidate substance against a cell line panel containing 60 human tumor cell lines. This protocol has been verified and is generally accepted throughout the scientific community. This protocol and the established statistical means of evaluating the results obtained therefrom have been fully described in the literature. See Principles & Practice of Oncology PPO Updates, Volume 3, Number 10, Oct. 1989, by Michael R. Boyd, M.D., Ph.D., for an indepth description of the test protocol. The statistical analysis is explained in "Display and Analysis of Patterns of Differential Activity of Drugs Against Human Tumor Cell Lines: Development of Means Graph and COMPARE Algorithm" Journal of the National Cancer Institute Reports Vol. 81, No. 14, Pg. 1088, Jul. 14, 1989, by K. D. Paull et al. Both of these references are incorporated herein by this reference thereto.
Biological Testing; Data Display and Analysis; Screening Data Summary. Freshly isolated halistatin 2 was tested in the NCI's human tumor, disease-oriented in vitro primary screen, and data calculations performed. Table 3 is a composite prepared from mean graphs constructed from the averaged GI50 values from quadruplicate screenings of Halistatin 2.

In the case of `C=C1CC2CCC34CC5OC6C(O3)C3OC(CCC3OC6(O)C5O4)CC(=O)OC3C(CC4OC(CCC1O2)CC(C)C4=C)OC1CC2OC4(CC2OC1C3C)CC1OC2(CC(C)C3OC5CC(C(O)CO)OC5CC3O2)CC(C)C1O4` (centres unmarked) [halistatin 2], the “Log10 TGI, Delta” value is reported as 1.05, the “Log10 TGI, Range” value is reported as 1.26 and the GI50 (Homo sapiens, read-out: Log10 GI50, MG-MID (converted)) is reported as 0.676 nM. For the same compound, the IC (TGI) (Homo sapiens, read-out: Log10 TGI, MG-MID) was 6.17 nM and the GI50 (Homo sapiens, read-out: overall panel mean GI50) was 0.68 nM.

Read-outs that look alike come from different tables or passages of the source.
